# Measured values published in the BET-seq Pho4 binding data (Le et al. 2018).
# This is one part of the list. Values were computed here from the reads of four pooled replicates and scatter widely.
# Target: T1, Pho4 (S. cerevisiae) (UniProt P07270)
# T1 sequence: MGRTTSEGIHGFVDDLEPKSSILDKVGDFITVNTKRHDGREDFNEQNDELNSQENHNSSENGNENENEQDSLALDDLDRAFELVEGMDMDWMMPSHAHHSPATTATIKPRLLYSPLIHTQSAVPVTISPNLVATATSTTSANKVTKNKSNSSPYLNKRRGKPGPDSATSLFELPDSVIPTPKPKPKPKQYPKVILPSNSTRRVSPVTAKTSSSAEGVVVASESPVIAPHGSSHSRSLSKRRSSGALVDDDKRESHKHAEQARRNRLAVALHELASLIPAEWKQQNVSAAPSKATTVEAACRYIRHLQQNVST
# Experiment: relative binding free energy (BET-seq); higher = weaker binding
# Details: reference: library average
row,Sequence,relative binding free energy
1,GGTCTCACGTGGGGTG,0.15 kcal/mol
2,TTATGCACGTGTAAGG,0.07 kcal/mol
3,GACGTCACGTGGGGAA,0.08 kcal/mol
4,TTCTTCACGTGAAGTT,0.38 kcal/mol
5,AGACGCACGTGTTAGG,-0.04 kcal/mol
6,TGGTTCACGTGTTGTT,0.3 kcal/mol
7,TTCGGCACGTGTCTGT,-0.01 kcal/mol
8,ACTTGCACGTGGAAGG,-0.01 kcal/mol
9,GGACGCACGTGAGGAG,0.1 kcal/mol
10,GGATTCACGTGGTAGA,0.31 kcal/mol
11,GTGGTCACGTGTTATT,0.19 kcal/mol
12,ATCGGCACGTGATTTA,-0.04 kcal/mol
13,CGTTGCACGTGGGGGT,-0.11 kcal/mol
14,TTGCGCACGTGTATTG,-0.09 kcal/mol
15,TGCATCACGTGGGGAT,0.16 kcal/mol
16,TTCGACACGTGAATGT,0.3 kcal/mol
17,GTTTCCACGTGATTTA,0.33 kcal/mol
18,TGTTTCACGTGTCGAA,0.17 kcal/mol
19,AGAGGCACGTGTTTTG,-0.13 kcal/mol
20,TTACTCACGTGATTGT,0.23 kcal/mol
21,TGGGGCACGTGGGGAA,-0.08 kcal/mol
22,GCGGTCACGTGGATGT,0.08 kcal/mol
23,GTAGGCACGTGAGGGG,0.21 kcal/mol

row,Sequence,relative binding free energy
1,TGGGACACGTGAGGCT,0.14 kcal/mol
2,CACGGCACGTGGTTGG,-0.1 kcal/mol
3,TTTTCCACGTGTTATA,0.2 kcal/mol
4,ATGGTCACGTGCTGAG,0.1 kcal/mol
5,AGCTTCACGTGTATTG,0.18 kcal/mol
6,ATCGTCACGTGTAATT,0.18 kcal/mol
7,TGCTACACGTGTTTGG,0.09 kcal/mol
8,GGGACCACGTGGTTTG,-0.12 kcal/mol
9,AATTCCACGTGTGTGT,0.11 kcal/mol
10,TGGCTCACGTGAGATT,0.5 kcal/mol
11,TCTTTCACGTGGGGCG,0.22 kcal/mol
12,ATTAGCACGTGCGTGA,-0.07 kcal/mol
13,TTAATCACGTGTCGTA,0.09 kcal/mol
14,AGAGGCACGTGAACGG,0.02 kcal/mol
15,TGTCTCACGTGTGGAG,0.21 kcal/mol
16,TGTTTCACGTGTAAGA,0.27 kcal/mol
17,TTTAACACGTGGCTGA,-0.03 kcal/mol
18,ACGGTCACGTGTGTTA,0.1 kcal/mol
19,AGTGACACGTGGGTTG,-0.08 kcal/mol
20,AGTCGCACGTGAAGTT,0.23 kcal/mol
21,AAAGGCACGTGGGTAT,-0.2 kcal/mol
22,AGTGGCACGTGATCGA,-0.04 kcal/mol
23,ATAGGCACGTGGCGAT,-0.23 kcal/mol

row,Sequence,relative binding free energy
1,TGGGTCACGTGGGGTG,-0.01 kcal/mol
2,TGGTTCACGTGTTCGC,0.16 kcal/mol
3,TTTACCACGTGATGGG,0.09 kcal/mol
4,ACGTGCACGTGTGGCG,-0.14 kcal/mol
5,GGGTGCACGTGTGGCC,0.03 kcal/mol
6,TGTTTCACGTGTTTTT,0.29 kcal/mol
7,GAGTGCACGTGAGTGT,0.3 kcal/mol
8,AGATTCACGTGTATTA,0.2 kcal/mol
9,ATTTCCACGTGGCGGG,0.05 kcal/mol
10,GGCCTCACGTGGGTAG,0.07 kcal/mol
11,GTAGTCACGTGCTATG,0.14 kcal/mol
12,GAAATCACGTGGTGCG,0.23 kcal/mol
13,GTTGGCACGTGTCGGA,0.14 kcal/mol
14,AGGAGCACGTGTGTAT,-0.17 kcal/mol
15,CTGGCCACGTGGGCGG,-0.14 kcal/mol
16,TTCGTCACGTGAGCGG,0.19 kcal/mol
17,GTTTACACGTGTCTTA,0.13 kcal/mol
18,GGGTACACGTGGAGGA,0.05 kcal/mol
19,TGTTCCACGTGAGGCG,0.24 kcal/mol
20,AGATTCACGTGGCAGT,0.16 kcal/mol
21,TGACGCACGTGGGTAT,-0.34 kcal/mol
22,CTATACACGTGAGTGT,0.17 kcal/mol
23,TATCTCACGTGTATTG,0.12 kcal/mol

row,Sequence,relative binding free energy
1,TGCTGCACGTGTGGGC,0.01 kcal/mol
2,GGGTCCACGTGTGTTG,0.19 kcal/mol
3,TATAGCACGTGGAATT,0.13 kcal/mol
4,TGTAACACGTGTTGCA,-0.11 kcal/mol
5,GGTGTCACGTGAGGGC,0.2 kcal/mol
6,GGGGGCACGTGGTACT,-0.16 kcal/mol
7,TTGTTCACGTGAAGGT,0.41 kcal/mol
8,GAGTGCACGTGGAGCG,0.06 kcal/mol
9,AATGGCACGTGTTTAT,-0.02 kcal/mol
10,TGTTTCACGTGCATTT,0.15 kcal/mol
11,GCCGGCACGTGTTTTG,0.07 kcal/mol
12,GAATGCACGTGAGTTT,0.4 kcal/mol
13,ACGTTCACGTGTGGCA,0.19 kcal/mol
14,TGGGCCACGTGGGCGG,-0.26 kcal/mol
15,GGAGGCACGTGCTGTG,-0.26 kcal/mol
16,GCGGGCACGTGCGATG,-0.1 kcal/mol
17,GTCGTCACGTGATGAT,0.34 kcal/mol
18,TCGGCCACGTGTGGGG,-0.02 kcal/mol
19,CGGGACACGTGTAAGG,0.14 kcal/mol
20,TATTACACGTGGGTCA,-0.01 kcal/mol
21,CTTAGCACGTGTATTT,-0.01 kcal/mol
22,AAGTTCACGTGAGGAT,0.39 kcal/mol
23,ATAAGCACGTGGGGTG,-0.33 kcal/mol

row,Sequence,relative binding free energy
1,GAGGGCACGTGGACTT,-0.09 kcal/mol
2,GTGGACACGTGTTATA,0.04 kcal/mol
3,AGGGGCACGTGTTGCA,-0.18 kcal/mol
4,TTTCACACGTGCGGTG,0.03 kcal/mol
5,TCGTGCACGTGTGTGG,0.01 kcal/mol
6,TGGCACACGTGGGAAT,0.11 kcal/mol
7,TGCGGCACGTGGTGCT,-0.15 kcal/mol
8,GTAGGCACGTGGTCGA,-0.09 kcal/mol
9,AGTTACACGTGATGTT,0.22 kcal/mol
10,GATGTCACGTGATGGA,0.32 kcal/mol
11,GACGGCACGTGTTGGA,0.1 kcal/mol
12,TGTGGCACGTGGATAA,-0.07 kcal/mol
13,TTCTTCACGTGTAGTT,0.28 kcal/mol
14,ATTGACACGTGGTCGG,-0.19 kcal/mol
15,ATGGTCACGTGTGATT,0.14 kcal/mol
16,TTATGCACGTGCTAAG,-0.07 kcal/mol
17,ACGGTCACGTGCGGGA,0.16 kcal/mol
18,GATCTCACGTGGGTTG,0.19 kcal/mol
19,CGATACACGTGGGGGA,-0.08 kcal/mol
20,GCTTTCACGTGTTGAT,0.28 kcal/mol
21,ATAGTCACGTGTGTCA,0.14 kcal/mol
22,GTACGCACGTGTTGAG,0.06 kcal/mol
23,CGTGGCACGTGTTAGC,-0.14 kcal/mol
